Reference: PMC12136788
The list shows a part of the results.

B1: chr14:76904430:76904431:+_ENSMUSG00000022010_ENSMUST00000022587|mus_mus|mus_mus_mus_hu_True|48_68 (ssRNA)
RNA: GGGAGUUCUACAGUCCGACGAUCUGCAGCCAAAAACACCCUCGUGGAAAAAAAGAGGGAACACCAGCAGCCUGGUUUAAGCUAGAUAAAACCGCCUGGCUUUCCGCAGCCCAGGGAGAAACAGAAAACGGCAGCCCUAAUUUACAACAGAGGAUUGAGCAUCA
B2: 210416310_210416430_1989_3pUTR_ENSG00000082497_ENST00000367012|human|control|control (ssRNA)
RNA: GGGAGUUCUACAGUCCGACGAUCUGUUAAAUCCCUGCUGUAACUCUGAUUUAUCCUUAAUUUUCACAUUGGCAAAAAUUAAGAUAAAAGUAAGGCACCAAAAAUCGCCCUGUAUAACACCUCUCUAAAAGCCUCAUCACCCAUCAACAGAGGAUUGAGCAUCA
B3: chr1:66829163:66829164:+_ENSG00000184588_ENST00000423207|hu_hu|motif|central (ssRNA)
RNA: GGGAGUUCUACAGUCCGACGAUCUACAUCAGCAGCGUGCAGGCUGUUGUGAUAUGCCACGUCAGAAUGGUAAUGGUCUUCGGAAGUCAUCAUGUAGGUUAUAAAUGUGUCAGAUGAGAUUCUGAAUGUCUUUAGGAGGUCUCUCAACAGAGGAUUGAGCAUCA
B4: chr2:50987981:50987982:-_ENSMUSG00000017144_ENSMUST00000017288|mus_hu|FALSE|FALSE (ssRNA)
RNA: GGGAGUUCUACAGUCCGACGAUCGGUGGCAACGUGAAAAAUGUCUCUGACGCUAUUUUCCGACUGUAAAGCUGAGCAUUCGAUAUAAGUAGCUGCUCCAAUCUGUUUGGCCAUAUUUGCCCCCUGGUCAUAGGACACUGGCGUCAACAGAGGAUUGAGCAUCA
B5: chr3:100432656:100432657:+_ENSG00000114354_ENST00000490574|hu_mus|motif|central (ssRNA)
RNA: GGGAGUUCUACAGUCCGACGAUCUGUAACUUCAUCAUUACUCAGAAGCUUUCCUCUGAAUACUCGCUGCAUCAUUAGCACGGAUUCAUCGUAAGUAAUGUCUUCAUUAUGAAUGGGAAUUCGUCGGAUAUCUUCCCCAAGUUGCAACAGAGGAUUGAGCAUCA
B6: chr7:65705475:65705476:+_ENSG00000169902_ENST00000304842|hu_hu|hu_hu_hu_mus_True|48_48 (ssRNA)
RNA: GGGAGUUCUACAGUCCGACGAUCUCUAUUCGGUGAUGGCACUCCAUGGCAUGCUGGCCCAGGUAAAACACGGUCACAGAACUAAUCACCAGACAUGCCAAGAGUAAGUUCUGCUUCAGCUUCCCAACCAUCUUGAUGUGGUUACAACAGAGGAUUGAGCAUCA
B7: chr2:170668292:170668293:+_ENSG00000138385_ENST00000260956|hu_hu|FALSE|FALSE (ssRNA)
RNA: GGGAGUUCUACAGUCCGACGAUCGUGGACCUAAUUCGGUUUUCCUUUUAAAAGCCCCGCAAACAAAAGUCGUUUAAAACCUAUUUAAAAUGAAUAAAAAAUUGGUUUACUAAACUACUGGUCUCCAGCACCAUUUUCUGUUUUCAACAGAGGAUUGAGCAUCA
B8: chr16:94664741:94664742:+_ENSMUSG00000040785_ENSMUST00000117648|mus_hu|FALSE|FALSE (ssRNA)
RNA: GGGAGUUCUACAGUCCGACGAUCUGGUACUGAUCUUGGUAGCUGAUAUUCAGGAGAAAGGCUGGCCAAGGGUGUAUAUAUGCUGGUGUACUGGGGCAAACCUGGUAACACGUUUAUGUAUGCUGGCGGUGUCUGGGUGAUAUCCAACAGAGGAUUGAGCAUCA
B9: chr2:48026839:48026840:+_ENSG00000116062_ENST00000540021|hu_hu|hu_hu_hu_mus_False|48_58 (ssRNA)
RNA: GGGAGUUCUACAGUCCGACGAUCAUAGUGAGCCACUAGCGUCCUAAAUCUGGAACAGUGGCGGUCAUCCGAAAACUGACCUAUGAAAAACUUUCCCAGUGAAGUGUCCACAAAGCAAACACCAUACACACGAGUGUGACCAGACAACAGAGGAUUGAGCAUCA
B10: chr15:58001004:58001005:+_ENSG00000255529_ENST00000299638|hu_hu|FALSE|FALSE (ssRNA)
RNA: GGGAGUUCUACAGUCCGACGAUCAUCUGUACCCACAUCAACUUCUGCAAUUGCUUUUUGCCUUAGCUUACAGUCUAAACUAACAGGGUUAAACAGUUCACUUUUUCUUCUAACUUCUUCACAUUCUGCAAUGGCAGCUUUCAGCAACAGAGGAUUGAGCAUCA
B11: chr12:72289710:72289711:+_ENSMUSG00000034601_ENSMUST00000129376|mus_mus|FALSE|FALSE (ssRNA)
RNA: GGGAGUUCUACAGUCCGACGAUCAGAGAGUUAGGAUUCUCUUCAUCCAGUGGCAGGUCUCCACUGUCCCAUGGCUUGGGAAGUUCAGGGCUUGAUAACUUCAACUUGUCAAUGGAAGUUUCGGACAAAGUUGGGGUAAGAGCUCAACAGAGGAUUGAGCAUCA
B12: chr11:50112788:50112789:-_ENSMUSG00000020368_ENSMUST00000020637|mus_hu|FALSE|FALSE (ssRNA)
RNA: GGGAGUUCUACAGUCCGACGAUCGUCAGAGGUCAUGGACCACAGCUCCAAACCAAUAGCACUAAAAGGAGUCAUUCUGAAAGGUUCCAGAUCUUCAAAGAAAUCUGGAUUUGGUAUUUUCCUGGGUUUCCAGAUUCCCUGGUACAACAGAGGAUUGAGCAUCA
B13: chr12:120936209:120936210:+_ENSG00000088986_ENST00000242577|hu_hu|motif|central (ssRNA)
RNA: GGGAGUUCUACAGUCCGACGAUCUGAGAGAAAACAACGUGGGCAGAAGUAUGGAAUAGAAAAUAAAUACAAAUGUAGGCGGUUCUGCUAAUUGUUUUAUAACCACGACAAACUAGUACAGAGAAUGCCCUGUACAAAACACAACAACAGAGGAUUGAGCAUCA
B14: chr8:28827827:28827828:+_ENSG00000147421_ENST00000397358|hu_hu|FALSE|FALSE (ssRNA)
RNA: GGGAGUUCUACAGUCCGACGAUCAUUCUCCCUCCCAUUUUGAUUGGUAGUGCAAGGCUGUGGGGAAGUAUCAUAACUGUUGCUAGGUGACGGGGACAUUCCCGAAUGCUGCGUCUGUGUGGAAGCUGUAGCUGUAGAGGAAGACAACAGAGGAUUGAGCAUCA
B15: chr6:83927055:83927056:+_ENSMUSG00000030016_ENSMUST00000032088|mus_hu|FALSE|FALSE (ssRNA)
RNA: GGGAGUUCUACAGUCCGACGAUCUGUAGCUUUUGCCUUAGGAGAAGAGACUAUAACAGCCUUGAUGCUUGGUUUACUGCUAGAUACAUCUGAUACAGCCAGAAUACUAGUUUUACUAGUUUCAUCAGGCUUAUUAGCCUGACCCAACAGAGGAUUGAGCAUCA
B16: 163978229_163978349_2261_3pUTR_ENSMUSG00000018209_ENSMUST00000018353|mouse|control|control (ssRNA)
RNA: GGGAGUUCUACAGUCCGACGAUCAGGCACUGGGCAGUAUCUUGGAUGCGACUUUAGGCAGCUGGGAGGGUGGCGAUGGAUGAAAGGCGUUGAGACAGCAAAGGCUACUCUGCAAAGAGGGUGCAGGCGUCUCCUGGGAAAAGACAACAGAGGAUUGAGCAUCA
B17: 55316524_55316644_4947_3pUTR_ENSMUSG00000018583_ENSMUST00000018727|mouse|control|control (ssRNA)
RNA: GGGAGUUCUACAGUCCGACGAUCGUAGGUAUUGCCCGAGGCCCUGCCUGCUCCUGGAAGCCCUGAUUGCUCAACUGCUUCUCACCAUCUCUUCCCCUUAUUACUGGGUCAUAAUUCAAGGCAGACAUAAAACCUAACUAAGUGCAACAGAGGAUUGAGCAUCA
B18: 14247384_14252473_1229_CDS_ENSMUSG00000039219_ENSMUST00000039538|mouse|control|control (ssRNA)
RNA: GGGAGUUCUACAGUCCGACGAUCAAGCACAGGCCGUUUGUUAAUAGGUGUACCUCUAUCCUCCAUGAACUUAUACAGCUGCUGAAGAAAGUUCUCCCUUUCCUCUGGAAAUGGUUCUAUUUCUUCCUCUUCUUCGCUGCUGUUCAACAGAGGAUUGAGCAUCA
B19: 130454760_130463363_1317_CDS_ENSG00000196455_ENST00000356763|human|control|control (ssRNA)
RNA: GGGAGUUCUACAGUCCGACGAUCGAAAAAAUGUCCAUUUCUAUAAGCCAAAAGUUGAGAGAGAUCAAAUAAUGGUACACCUUCUGUAAAAAGCUCAGCUAUCACACAACCUGCUGAAAAGAUGUCCAUUGCUCUCUUCAACUCCAACAGAGGAUUGAGCAUCA
B20: 57396974_57397094_119_5pUTR_ENSMUSG00000021938_ENSMUST00000022507|mouse|control|control (ssRNA)
RNA: GGGAGUUCUACAGUCCGACGAUCUCAGGUUUCCUCUUAACAUCAUCUUAGCAAGUUCGCUUGGGAUGCUGGAUGAGGCCUAGACGUCAAGGUACACACGUCUCCACAUGUAUCUAUGGAAACGAAGCAAGGAAAGCCAGGUAACAACAGAGGAUUGAGCAUCA
B21: chr8:113366663:113366664:-_ENSMUSG00000033732_ENSMUST00000042012|mus_hu|motif|central (ssRNA)
RNA: GGGAGUUCUACAGUCCGACGAUCCAAUUUCUGUUUCUCAAUGGCACUAAUCAUAACGGCUCGCCCUUUGGGAUCCACAGCGGAGAACUGGCCAGGAACGAUGCGACGGCAUCCACUCUUGCCAAAGGUUUCUUGGUGAAUCUUCAACAGAGGAUUGAGCAUCA
B22: chr11:46765198:46765199:-_ENSG00000175216_ENST00000415402|hu_mus|motif|central (ssRNA)
RNA: GGGAGUUCUACAGUCCGACGAUCUACAGAAUACAGUGUCCCUUCAGGGCUACAGAAGAAGAGCUCACAACUCAAAAGGAACGGUUAAAAGAGUUUCUAAUGGCUGAAAGCUAGGAAAAAUUAGGACAAUUUUACAAAUGAGCCCAACAGAGGAUUGAGCAUCA

Biological target: T1, UNK ZnF1-3 (human, UniProt Q9C0B0 31-174)
T1 sequence: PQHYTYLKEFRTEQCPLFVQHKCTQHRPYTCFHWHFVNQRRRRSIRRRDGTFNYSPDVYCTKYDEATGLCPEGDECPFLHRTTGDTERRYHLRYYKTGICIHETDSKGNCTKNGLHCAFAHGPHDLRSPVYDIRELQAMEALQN
Experiment: nsRBNS (natural sequence RNA bind-n-seq); RBNS binding buffer (assumed for nsRBNS): 25 mM Tris pH 7.5, 150 mM KCl, 3 mM MgCl2, 0.01% Triton X-100, 500 ug/ml BSA, 20 U/ml SUPERase-In, 4 C; UNK is unkempt and MSI1 is Musashi-1; names of the RNAs are library labels; protein concentration not given here; high values mean tight binding

Binder	binding signal [enrichment R]
B1	1.88
B2	1.63
B3	0.688
B4	0.976
B5	0.469
B6	0.504
B7	1.4
B8	0.932
B9	0.962
B10	0.762
B11	1.07
B12	0.966
B13	2.49
B14	1.39
B15	0.715
B16	1.94
B17	1.08
B18	0.47
B19	0.83
B20	0.8
B21	0.826
B22	1.95
